SMILES strings stand for the structures. In all, about 46,000 compounds went through this assay and about 60 (0.1%) were called active. Roughly 3% stayed inconclusive and do not appear here. Calls come from the whole dose curve; as a rule, active = well fitted inhibition curve with a large enough effect; inconclusive = small, poorly fitted or top-dose-only effect; inactive = no such curve, though single readings can be large or run the other way. The list shows a part of the results.

The test is described as follows: Primary qHTS assay for Inhibitors of ovarian cancer metastasis using an organotypic tumor microenvironment (TME) model.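 For activity change, negative = inhibition: plate controls were DMSO wells for no effect and tomatine positive control wells for full effect.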 Note: nearly all actives have a fitted effect of over 65% in size. The conditions noted are these: SKOV3ip1-GFP adhesion/invasion on 3D omental model, fluorescence; series mostly up to 45.8 µM; activity change, negative = inhibition: at the top concentration. Summed up: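 Primary human omental fibroblast/mesothelial 3D culture pre-formed 48 h. SKOV3ip1-GFP cells added with compounds (0.36-46 umol/L), incubated 2 h RT/16 h 37 C, fixed; GFP cells quantified at 488/509 nm.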
In general terms: In qHTS, concentration-response curves come from the screen itself.
As to `O=C(NCc1ccccc1)C(=O)NCC(c1cccs1)S(=O)(=O)c1cccs1` (stereo not drawn), the “activity change, negative = inhibition” value is inactive: -22.4%.
As to `O=C(CSc1nc2c([nH]c3ccccc32)c(=O)n1-c1cccc(Cl)c1)c1ccccc1`, the compound was called inactive.
For the compound `CN1C(=O)Cc2cc(S(=O)(=O)NCc3ccc(Cl)cc3)ccc21`, the “activity change, negative = inhibition” value was inactive: 9.94%.
Still for that read-out and setting: as for `Cc1nnsc1C(=O)Oc1ccc(Cl)cc1`, the figure is inactive: -0.772%.
`COc1ccc(NC(=O)c2ncn(-c3ccccc3)n2)cc1Cl`: the compound was classed as inactive.
Consider `CCc1ccc(-n2nc(C)c3c(C)cc(=O)n(CC(=O)Nc4cc(C)ccc4C)c32)cc1`, for which the “activity change, negative = inhibition” value was inactive: -27.8%.
As for `CCCCn1cc(S(=O)(=O)c2ccc(OC)cc2)c(=O)c2cc(F)c(N3CCOCC3)cc21`, the result was inactive.
The same measure, in the same setting: as for `COc1ccc(CCNC(=O)CCc2c(C)nc3c4cccnc4nn3c2C)cc1OC`, the entry is “inactive”.
As for `Cc1c(C(=O)OCC2CCCCC2)[nH]c2c1C(=O)CC(c1ccccc1Cl)C2` (stereo not drawn), the “activity change, negative = inhibition” value was inactive: 2.75%.
For `CCc1ccccc1NC(=O)CSc1ncc2c(n1)-c1cc(Cl)ccc1N(Cc1ccccc1)S2(=O)=O`, the compound was called inactive.
On to `Cc1cc(C)cc(C(=O)NCCc2csc(-c3ccc(C(F)(F)F)cc3)n2)c1`, for which the “activity change, negative = inhibition” value is inactive: 3.09%.
The same measure, in the same setting: then `CCc1ccccc1S(=O)(=O)Cc1ccc(C(=O)NCCc2ccc(C)cc2)o1`, with inactive: 8.46%; and `CCC(Sc1nnc2c(n1)[nH]c1ccccc12)C(=O)Nc1ccccc1OC` (stereo not drawn), with inactive: 13.7%; and `Cc1ccc(Cn2c(=O)n(CCCCC(=O)NCc3ccc4c(c3)OCO4)c(=O)c3ccccc32)cc1`, with inactive: -2.15%.
As to `COc1cccc(N2CCN(C3=NS(=O)(=O)C(c4ccc(C)cc4)=C3C)CC2)c1`, the call was inactive.
In the case of `Cn1cc(S(=O)(=O)N2CCCC2)cc1C(=O)N1CCN(c2cccc(Cl)c2)CC1`, the “activity change, negative = inhibition” value was inactive: -6.27%.
Consider `Cc1cc(C)c(NC(=O)Cn2c(=O)n(CC3CCCO3)c(=O)c3ccccc32)c(C)c1` (stereo not drawn), for which the “activity change, negative = inhibition” value is inactive: 19.4%.
On the same count and under the same terms, as for `Cc1cnc(Nc2ccc(CN3CCOCC3)cc2)nc1Nc1cccc(S(=O)(=O)NC(C)(C)C)c1`, the figure is inactive: -23.5%.
In the case of `Cc1cc2c(cc1NS(=O)(=O)c1ccc(NC(=O)CC(C)C)cc1)n(C)c(=O)c(=O)n2C`, the “activity change, negative = inhibition” value is inactive: -3.74%.
For the compound `COc1ccccc1NC(=O)N1CCN(Cc2nc3ccc(C)cc3o2)CC1`, the result was inactive.
Take `CC(=O)Nc1c(C)nn(-c2ccccc2)c1N1CCC(C(=O)Nc2cc(F)ccc2F)CC1`: the “activity change, negative = inhibition” value is inactive: -9.2%.
The same measure, in the same setting: then `Cc1ccc(N2C(=O)c3n[nH]c(C)c3C2c2ccccc2Cl)cc1` (stereo not drawn), with inactive: -3.83%; and `Cc1cc(C)cc(NS(=O)(=O)c2c(C)nc3scc(C)n3c2=O)c1`, with inactive: 5.5%.
For the compound `CCc1ccc(NC(=O)c2sc(-n3nc(C)c(Cc4ccc5c(c4)OCO5)c3C)nc2C)cc1`, the call was inactive.
On to `CCOC(=O)c1cc(C)n(CC2CCC(C(=O)Nc3ccc(OC)c(OC)c3)CC2)c1C` (stereo not drawn), for which the “activity change, negative = inhibition” value is inactive: 5.2%.
In the case of `Cc1ccc2oc(C(=O)Nc3ccc(S(=O)(=O)N4CCCCCC4)cc3)cc(=O)c2c1`, the “activity change, negative = inhibition” value was inactive: 9.53%.
Still for that read-out and setting: then `COc1ccccc1NC(=O)Cn1nc2c3cc(F)ccc3n(Cc3cccc(C)c3)cc-2c1=O`, with inactive: -10.8%; and `CC(C)Cn1cnc2c(N)nc3ccccc3c21`, with inactive: 47.4%.
In the case of `O=C(Oc1ccccc1F)c1nc(SCc2ccccc2F)ncc1Cl`, the “activity change, negative = inhibition” value is inactive: 3.45%.
Same read-out and setting: then `CCOc1ccccc1NC(=O)Cn1c(=O)n(-c2ccc(C)c(C)c2)c(=O)c2oc3ccccc3c21`, with inactive: 1.88%.
With `CC(=O)N1CCCc2cc(S(=O)(=O)NCc3ccccc3Cl)ccc21`, the “activity change, negative = inhibition” value was inactive: 0.0919%.
Still for that read-out and setting: then `COc1ccc(Nc2ncc3c(n2)CCN(Cc2cccc(F)c2F)C3)c(OC)c1`, with inactive: -10.3%.
Regarding `CCN1CCC(N(Cc2ccc3c(c2)OCO3)C(=O)Nc2cccc(C)c2C)CC1`, the “activity change, negative = inhibition” value was inactive: 12.2%.
With `O=C(Nc1ccccc1C(F)(F)F)c1noc2c1CCCC2`, the “activity change, negative = inhibition” value was inactive: -4.17%.
Take `Oc1c(C(c2ccccc2Cl)N2CCC(O)CC2)sc2nc(-c3ccco3)nn12` (stereo not drawn): the “activity change, negative = inhibition” value is inactive: -1.76%.
On to `CCN(C(=O)Cn1cc(S(=O)(=O)N2CCN(c3ccccc3F)CC2)c2ccccc2c1=O)c1ccc(C)c(C)c1`, for which the call was inactive.
As to `Cc1ccc(S(=O)(=O)c2nnn3c2nc(N2CCCC(C)C2)c2cc(Cl)ccc23)cc1C` (stereo not drawn), the “activity change, negative = inhibition” value is inactive: 8.36%.
On the same count and under the same terms, then `CCc1ccc(Nc2nc3c(S(=O)(=O)c4ccc(C)cc4)nnn3c3ccsc23)cc1`, with inactive: -8.87%.
Regarding `Cc1ccc(C)c(NC(=O)c2cc(S(=O)(=O)N3CCN(c4cccc(Cl)c4)CC3)ccc2F)c1`, the “activity change, negative = inhibition” value was inactive: 1.19%.
Regarding `CCN(Cc1ccccc1)C(=O)C1CCC(CNS(=O)(=O)c2ccc3c(c2)CCCC(=O)N3)CC1` (stereo not drawn), the “activity change, negative = inhibition” value was inactive: 27%.
With `COc1cccc(CNC(=O)C2CCN(Cc3cc4ccccc4n3Cc3ccccc3)CC2)c1OC`, the compound was called inactive.
As to `Cc1ccc(-n2ncc(C(=O)NCc3ccccn3)c2C2CCN(C(=O)OC(C)(C)C)CC2)cc1C`, the “activity change, negative = inhibition” value is inactive: -0.0316%.
Same read-out and setting: then `Cc1ccc(Cl)cc1NC(=O)c1nnn(Cc2ccccc2)c1N`, with inactive: -3.12%.
On to `Cc1ccc(NC(=O)CSc2nc3ccccc3nc2Cc2ccccc2)c(Cl)c1`, for which the compound was classed as inactive.
Still for that read-out and setting: then `O=C(COc1ccc(Cl)cc1)Nc1ccc2nc(SCC(=O)N3CCOCC3)sc2c1`, with “inactive”.
Consider `CCn1ccc2cc(S(=O)(=O)N3CCC(C(=O)NCC(C)c4ccccc4)CC3)ccc21` (stereo not drawn), for which the “activity change, negative = inhibition” value is inactive: 0.987%.
For the compound `COc1ccc(S(=O)(=O)Nc2cc(-c3cn4ccc(C)cc4n3)ccc2C)cc1OC`, the outcome was inactive.
For the compound `Cc1nnc2c3ccccc3nc(Nc3ccccc3C(=O)O)n12`, the “activity change, negative = inhibition” value was inactive: -13.8%.

For the origin of these results see PubChem BioAssay AID1963576 (National Center for Advancing Translational Sciences (NCATS), 2024).
